Data taken from PubChem BioAssay AID445 (National Center for Advancing Translational Sciences (NCATS), 2006).
The campaign covered roughly 110,000 compounds. About 40 (0.04%) were called active. The shares of active, inactive and inconclusive entries below differ from those in the screen. The call rests on the fitted dose curve; in most records, active means well fitted curve in the direction sought with a large enough effect in the signal ratio (not every such curve was filed as active); inconclusive means small, poorly fitted or top-dose-only effect, or a change in a side signal; inactive means flat fitted curve, though single readings scatter; the % refers to the signal ratio. Potencies beside an inconclusive call are fits to weak or partial responses and may not hold up.

Experiment: IkB Signaling;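 on IkBa stabilization activation: 0% = basal untreated cells and 100% = reference inhibitor full response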
Conditions: ABC-DLBCL IkBa-CBG/CBR dual luciferase ratio (green luciferase fused to IkBa over red control in OCI-Ly3 lymphoma cells), 4 h; IkBa stabilization activation: at 57.1 µM (top of the series), scaled: untreated 0%, proteasome inhibitor 100% unless noted
Method in brief: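 Luminescence ratio of IκBα-fused green versus native red beetle luciferase in OCI-Ly3 cells, 4 h post-doxycycline with compound; red signal alone, scaled from basal (0%) to zero light (-100%), flagged nonspecific or cytotoxic effects.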
Potency means the concentration at half of the fitted maximal effect.

Compound	Potency	IkBa stabilization activation
CS(=O)(=O)c1ccc2nc(NC(=O)c3cccs3)sc2c1	inconclusive: 6.31 µM [signal inhibitor, partial curve]	
COc1ccc(C(=O)NCc2cn3cccc(C)c3n2)cc1OC		inactive: 4.27%
O=C(Nc1nc(-c2ccco2)cs1)c1ccccc1	inconclusive: 31.6 µM [signal inhibitor, partial curve]	
CCS(=O)(=O)c1ccc(C(=O)N2CCN(c3nc4c(OC)ccc(C)c4s3)CC2)cc1		inconclusive: 2.28% [signal inhibitor]
CCOC(=O)c1nnn(-c2nonc2-n2cccc2)c1CN1CCC(C)CC1		inconclusive: 2.52% [signal inhibitor]
O=C(Nc1nc(-c2ccc3c(c2)OCO3)cs1)c1ccncc1		inconclusive: 3.81% [signal inhibitor]
C1=C(c2ccccc2)CCN(c2nc3ccccc3n3cnnc23)C1	inconclusive: 15.8 µM [signal inhibitor, partial curve]	
Cn1cc(-c2cc3n(n2)CCC(=O)N3CCCC(=O)Nc2ccc(Cl)cc2)c2ccccc21		inconclusive: 0.21% [signal inhibitor]
O=C1CC(c2ccccc2)Sc2ccccc2N1Cc1ccccc1F (stereo not drawn)		inconclusive: 7.31% [signal inhibitor]
Cc1c(Nc2ncnc3nc[nH]c23)c(=O)n(-c2ccccc2)n1C		inconclusive: -1.41% [signal inhibitor]
COc1ccc(NC(=O)Cn2ccn(-c3ccc(F)c(F)c3)c(=O)c2=O)cc1Cl		inconclusive: 2.54% [signal inhibitor]
O=c1oc2ccccc2c(N2CCCCC2)c1CN1CCCCC1	inconclusive: 20 µM [signal inhibitor, partial curve]	
Cc1cccc(CNC(=O)c2cnc3c(-c4cccc(C)c4)c(C)nn3c2C)c1		inactive: -1.42%
CC(=O)N1CCCc2cc(S(=O)(=O)N(C)CC(=O)Nc3cccc(Cl)c3C)ccc21		inconclusive: 1.15% [signal inhibitor]
Cn1c(=O)c2cc(S(=O)(=O)NC(Cc3ccccc3)C(=O)Nc3ccc(F)cc3)ccc2n(C)c1=O (stereo not drawn)		inconclusive: 14% [signal inhibitor]
Cc1ccccc1Cn1c2ccccc2c2cnn(CC(=O)NCc3cccc(Cl)c3)c(=O)c21		inconclusive: 4.6% [signal inhibitor]
COCCN(CCOC)c1ncc(Cl)c(C(=O)c2c(C)cc3ccccn23)n1		inconclusive: 2.23% [signal inhibitor]
O=C1CCNc2cc3ccccc3cc21		inconclusive: 6.52% [signal inhibitor]
Cc1nc(-n2nc(C)c(Cc3ccc(Cl)cc3)c2C)sc1C(=O)N1CCC(C)CC1		inconclusive: -2% [signal inhibitor]
CC(N=Cc1cccc(O)c1O)c1ccccc1 (stereo not drawn)	inconclusive: 7.94 µM [rising, full curve]	
CN(C)C(=O)CSc1cccc2cccnc12	inconclusive: 10 µM [rising, partial curve]	
CCOc1ccc2nc(N(Cc3cccnc3)C(=O)c3cccs3)sc2c1		inconclusive: 8.85% [signal inhibitor]

Compound	Potency	IkBa stabilization activation
COc1cccc(C(=O)Nc2nc(-c3nnn(-c4ccccc4C(F)(F)F)c3C)ns2)c1		inconclusive: 4.06% [signal inhibitor]
Cc1c(Cl)ccc2sc(N3CCN(C(=O)CCS(=O)(=O)c4ccc(F)cc4)CC3)nc12		inconclusive: 10.3% [signal inhibitor]
COc1ccc(-c2nc3ccccc3n2Cc2ccccc2)cc1		inconclusive: -1.07% [signal inhibitor]
Cc1cc(NC(=O)c2ccc3c(c2)OCCO3)no1		inactive: 5.22%
CC1=C(C(=O)Nc2ccccc2)C(c2ccccn2)n2nc(SCc3ccccc3)nc2N1 (stereo not drawn)		inconclusive: 2.66% [signal inhibitor]
Cc1ccc2c(c1)C(c1ccccc1)N(C(=O)COc1ccc(Cl)cc1Cl)CC(=O)N2 (stereo not drawn)		inconclusive: 12.9% [signal inhibitor]
CCCCN1C(=O)C(O)(CC(=O)c2ccc(CC)cc2)c2cc(Br)ccc21 (stereo not drawn)		inactive: 17.3%
O=C(Nc1ccc(NC(=O)C23CC4CC(CC(C4)C2)C3)cn1)c1ccco1		inactive: 0.203%
COc1ccc(C)c2sc(NC(=O)c3ccc(S(=O)(=O)N4CCOCC4)cc3)nc12		inconclusive: 2.35% [signal inhibitor]
COc1ccc(C(=O)Oc2c(Sc3ccccc3)c(C)nn2-c2ccccc2)c(OC)c1		inconclusive: 3.17% [signal inhibitor]
COc1cccc(N2CCN(C(=O)c3cnc4c(-c5ccc(F)cc5)c(C)nn4c3C)CC2)c1		inconclusive: 7% [signal inhibitor]
COc1ccc(C2Nc3ccccc3-c3cc(C)nn32)c(OC)c1 (stereo not drawn)		inconclusive: 3.23% [signal inhibitor]
Cc1cccc(C)c1OCCn1c(CCNC(=O)C2CCCCC2)nc2ccccc21		inconclusive: 6.02% [signal inhibitor]
Cc1ccc(NCc2nnc(SCCN3CCCCC3)n2CC2CCCO2)c(C)c1 (stereo not drawn)		inconclusive: 1.44% [signal inhibitor]
CCN(CC)S(=O)(=O)c1ccc2c(c1)N(CC(=O)Nc1ccc(Cl)cc1)C(=O)C1CCCN21 (stereo not drawn)		inconclusive: 9.36% [signal inhibitor]
CC(C)(C)c1ccc(C(=O)NCC(c2ccco2)S(=O)(=O)c2ccccc2)cc1 (stereo not drawn)		inconclusive: -0.327% [signal inhibitor]
CCOC(=O)Cn1c(=O)c2c(nc(N3CCCCC3)n2Cc2ccccc2)n(C)c1=O		inconclusive: 3.66% [signal inhibitor]
Cc1ccc(C)c(NC(=O)c2cc(S(=O)(=O)N3CCc4ccccc4C3)ccc2F)c1		inconclusive: -3.26% [signal inhibitor]
CCOc1ccc(N2C(=O)c3cccnc3C2Nc2ccc(Cl)cc2)cc1 (stereo not drawn)		inconclusive: 11.8% [signal inhibitor]
Fc1ccc(CNc2nc(-c3ccco3)cc(C(F)(F)F)n2)cc1		inconclusive: 13.9% [signal inhibitor]
O=C(CN1CCN(c2nc(-c3ccccc3)cs2)CC1)Nc1ccc2c(c1)OCO2		inconclusive: 4.14% [signal inhibitor]
